# Article PMC7819943, “Rice protein-binding microarrays: a tool to detect cis-acting elements near promoter regions in rice”
# The list shows a part of the results.
# Molecular target: T1, OsWOX13 (Oryza sativa, UniProt Q5QMM3 1-267)
# T1 sequence: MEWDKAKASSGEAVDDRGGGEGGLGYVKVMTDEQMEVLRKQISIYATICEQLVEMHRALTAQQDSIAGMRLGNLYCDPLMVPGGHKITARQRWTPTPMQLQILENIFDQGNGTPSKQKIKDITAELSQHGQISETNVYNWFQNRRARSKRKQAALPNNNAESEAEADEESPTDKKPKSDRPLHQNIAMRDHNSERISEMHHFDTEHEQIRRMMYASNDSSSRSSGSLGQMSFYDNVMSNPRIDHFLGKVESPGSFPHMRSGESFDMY
# Assay: protein-binding microarray (RPBM); PBS, 2% BSA, 51.3 ng/ul salmon testes DNA, 50 uM zinc acetate, 200 nM TF, 25 C, 1 h; high values mean tight binding
# Conditions: protein: recombinant; tags: N-terminal polyhistidine and DsRed monomer fusion (pET32a); label: CyDye5-dUTP incorporated in the synthesized complementary strand; 3' TTTTT single-stranded linker to array surface; dsDNA, one strand shown
# Outline: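 An Axon 4000B scanner gave the binding signal as per-feature fluorescence intensity in arbitrary units. This followed washing of a custom Agilent array that had been incubated for 1 h at 25 °C with 200 nM protein in PBS, 2% BSA, salmon testes DNA and 50 µM zinc acetate. The proteins were transcription factors fused at the N-terminus to polyhistidine and DsRed, expressed in E. coli BL21-CodonPlus and purified on Ni–NTA.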
row,Sequence,binding signal
1,GGCCCACATTAAGATTAGATTGTGCTACACATTGGTGCTACGGAGTCACCTAGTGCAG,4510 fluorescence intensity (a.u.)
2,ACTTCAATTACATGCACGGGGTTGACGAGAGACGACGCCACGGAGTCACCTAGTGCAG,19300 fluorescence intensity (a.u.)
3,AGACTTAATTGTAACTGTGTACTACTACGAGCTTAATCAGCGGAGTCACCTAGTGCAG,28400 fluorescence intensity (a.u.)
4,TGATATAATTTTCACTTCTGTGTATGTACATGGTCTTGTTCGGAGTCACCTAGTGCAG,3580 fluorescence intensity (a.u.)
5,GTGATGGAAAATTGGGAGTTTGGGAGAAGTTTGATGTGAACGGAGTCACCTAGTGCAG,4620 fluorescence intensity (a.u.)
6,TTACTCTTAATTAAAATGAAACCGAAGCGAGTACTATTTACGGAGTCACCTAGTGCAG,3900 fluorescence intensity (a.u.)
7,CGGATATAAATTTGAAAGAAAATTGAGTTCGACTTCGTGACGGAGTCACCTAGTGCAG,13000 fluorescence intensity (a.u.)
8,CTGAGATGGAAAATCACACCCAATTCATTTGGCTTGTTGTCGGAGTCACCTAGTGCAG,4960 fluorescence intensity (a.u.)
9,CAATAATTTACTTTGGTATCCTTGGCTACTTCAGGTTGTTCGGAGTCACCTAGTGCAG,10300 fluorescence intensity (a.u.)
10,TTTCCAATAATAATTTGATAAAAGTATTTCTTTTGTCAAACGGAGTCACCTAGTGCAG,3640 fluorescence intensity (a.u.)
11,CGGGTATTATTTGACTGATAAACCCTGATGCTTCATTATTCGGAGTCACCTAGTGCAG,3950 fluorescence intensity (a.u.)
12,TTCACAAAATAAATCATGTAAATTAACATTAAGAAGAAATCGGAGTCACCTAGTGCAG,4900 fluorescence intensity (a.u.)
13,TGTTTAATACTCTAAATTAGCGTACAAACATCCTATGTAACGGAGTCACCTAGTGCAG,3220 fluorescence intensity (a.u.)
14,TATGATTATCCTCAGAGCCGTTTGGATCGATGGGTAGATTCGGAGTCACCTAGTGCAG,11500 fluorescence intensity (a.u.)
15,TACTTTAATGAATTATTCCGTAAATAAGATTACGTCTAAGCGGAGTCACCTAGTGCAG,3520 fluorescence intensity (a.u.)
16,ATTCCATTACTATGATTTAACTGAGGATTCTATCACTGAACGGAGTCACCTAGTGCAG,12600 fluorescence intensity (a.u.)
17,GTTAATTACGGGACTGTTCCTGCTAACGTCCTCCGTCCGACGGAGTCACCTAGTGCAG,15900 fluorescence intensity (a.u.)
18,GATTGATCAACTGATAGCTTCCTATTTGTCCTCCTCTGCACGGAGTCACCTAGTGCAG,7240 fluorescence intensity (a.u.)
19,GTATTAATGGGGATCACAGGATTGCAGTAACAGCAGCAGGCGGAGTCACCTAGTGCAG,5260 fluorescence intensity (a.u.)
20,GAGTGATGATGACTAGTCTACTGGAGTAGTACTAGTGGCCCGGAGTCACCTAGTGCAG,5600 fluorescence intensity (a.u.)
21,CAAATAATGGAAGAAAATTTTAATGCTTTTCCATGCTGAACGGAGTCACCTAGTGCAG,5380 fluorescence intensity (a.u.)

row,Sequence,binding signal
1,TCCTTTGATTTTGTGTTTCGTGCATCAAAGTGTCGCAATCCGGAGTCACCTAGTGCAG,8350 fluorescence intensity (a.u.)
2,CAATTATTTACAATGTAATTATACTACATTTATTCTGTAGCGGAGTCACCTAGTGCAG,12900 fluorescence intensity (a.u.)
3,GCCACAACAAAATGGCATAAATTAGTAGGCTACACATGTTCGGAGTCACCTAGTGCAG,3220 fluorescence intensity (a.u.)
4,TGTTTAACTGACAGTATTAATACGAGTTATTTAATGCATACGGAGTCACCTAGTGCAG,11200 fluorescence intensity (a.u.)
5,TCTAATTAAGTAAACCACCACCCACTCTCGTCGTACGTACCGGAGTCACCTAGTGCAG,12100 fluorescence intensity (a.u.)
6,TGACCTAATTAATTATTTAACTAATAATAATTAGTGATTACGGAGTCACCTAGTGCAG,44500 fluorescence intensity (a.u.)
7,TTTGAAGTAATTCATGATTGGTGTCTTTTATTTCTATAATCGGAGTCACCTAGTGCAG,4140 fluorescence intensity (a.u.)
8,AAACCATATCACGCCGCAATTAATATAAAATCATAGTAGGCGGAGTCACCTAGTGCAG,4090 fluorescence intensity (a.u.)
9,ATATATATATATATATATATATATCTACGGTGATCATCCACGGAGTCACCTAGTGCAG,17400 fluorescence intensity (a.u.)
10,AACAACCAACTTTTGACAGACATAGATTAGAAGTTGTTTTCGGAGTCACCTAGTGCAG,5190 fluorescence intensity (a.u.)
11,AGAGAGTCCCAATAATTAAGTGTTAATTATTATAAAATTTCGGAGTCACCTAGTGCAG,13600 fluorescence intensity (a.u.)
12,TTCTAACACCAAAATTAATTTCATTATTAGTAATATAGTACGGAGTCACCTAGTGCAG,5440 fluorescence intensity (a.u.)
13,ATACAGATTATAAATAATTTGGAGGCTTAGAAATTTCCAGCGGAGTCACCTAGTGCAG,12200 fluorescence intensity (a.u.)
14,TTTAAAATTTAAAACTTAAATTGAAAGTTTTCAAATCTAACGGAGTCACCTAGTGCAG,19700 fluorescence intensity (a.u.)
15,CTAGTGTCAATCAATGAATCAAGCGGCCACCAACCTACCTCGGAGTCACCTAGTGCAG,34400 fluorescence intensity (a.u.)
16,ACTTAATTATTGTTATGATTCATTCATGCATAAAGCGGTGCGGAGTCACCTAGTGCAG,55700 fluorescence intensity (a.u.)
17,ACAAGATTGGCTATATGGGCATCGATAAATGTAAATATTACGGAGTCACCTAGTGCAG,19300 fluorescence intensity (a.u.)
18,CATGTAATTATCCACATCCCTGGAAGATAAGTACTACTACCGGAGTCACCTAGTGCAG,10700 fluorescence intensity (a.u.)
19,TCTCTTTGATTATCTCACTATCTAGTTGGGTGCACAAACACGGAGTCACCTAGTGCAG,13200 fluorescence intensity (a.u.)
20,AATATGATTGCCTTAGTGTTAGGATCAGATCTTGATGTAACGGAGTCACCTAGTGCAG,31900 fluorescence intensity (a.u.)
21,GTATAGTAACAAATTTGTGATAGATGCAATGAGAGACCGGCGGAGTCACCTAGTGCAG,12400 fluorescence intensity (a.u.)
